The list shows a part of the results.
Each compound was assayed on S. aureus RN4220 (assay: growth inhibition call (relative growth <= 0.2)). Conditions: 50 µM.

Growth inhibition call, inactive:
CCCCCCCCCC[C@@H](O)[C@H]1C=C[C@@H]2C(=O)N(c3ccccc3)C(=O)[C@@H]2N1Nc1ccc([N+](=O)[O-])cc1, C=CC[C@@H](CC(=O)NCCO)C(=O)NC[C@@H](OC(=O)[C@@H](CC=C)CC(=O)OC(C)(C)C)c1ccccc1, CC(C)NC(=O)N(C)C[C@H]1Oc2ccc(NS(=O)(=O)c3ccc(Cl)cc3)cc2C(=O)N([C@H](C)CO)C[C@H]1C, C1CC2(CCN1)OCCS2, Cc1ccc(S(=O)(=O)N2C[C@H](O)COC[C@H]3O[C@H](CC(=O)NCc4ccc(Cl)c(Cl)c4)CC[C@@H]32)cc1, C[C@@H]1CN([C@@H](C)CO)S(=O)(=O)c2ccc(-c3cccc(F)c3)cc2O[C@H]1CN(C)S(C)(=O)=O, C[C@@H]1CN([C@H](C)CO)C(=O)Cc2cc(NC(=O)CCN3CCOCC3)ccc2O[C@@H]1CN(C)C(=O)Nc1ccc2c(c1)OCO2, Cc1noc(C)c1NC(=O)N(C)C[C@H]1Oc2ccc(NS(C)(=O)=O)cc2CC(=O)N([C@@H](C)CO)C[C@H]1C, COCCNC(=O)C[C@H]1C[C@@H]2c3cc(NC(=O)CN(C)C)ccc3O[C@@H]2[C@H](CO)O1, CO[C@@H]1CN(C)C(=O)c2ccc(NC(=O)Nc3cccc(F)c3)cc2OC[C@@H](C)N(C(=O)Nc2c(C)noc2C)C[C@@H]1C
